Test results: the supplement of paper PMC11417369
The other results are listed elsewhere or left out.

test system: PfHDP1 homeodomain (GST-tagged); test: gcPBM binding intensity (ln(normalized median fluorescence intensity)); higher = stronger DNA binding
Outline: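 Plasmodium falciparum DNA-binding domains carrying a GST tag were expressed in E. coli and applied for 1 h, at about 25 μg on average, to an Agilent 4 × 180k array. The array held primer-extended double-stranded 36-bp intergenic genomic probes together with negative controls, and binding took place in 1× PBS with 1% milk, 0.2 mg/ml BSA, 0.5% salmon testes DNA and 0.03% Triton X-100. An Alexa488 anti-GST antibody detected bound protein, and the array was scanned at 488 nm. Binding intensity is taken as the highest Masliner-normalised natural-log median intensity across replicate spots of either probe orientation.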

Sequence	gcPBM binding intensity (ln)
ATTCTAATTAGTAAAGTGCAGATAAAATGATGCCCT [GTGCAC_site9578]	7.14
TTTTTCACATCTATAAATCATCTAATCAATATTTTT [GTGCAC_negctrl_site444]	6.19
AATATATTTTGATATGAACAATTAATAATTTCAAAT [GTGCAC_negctrl_site170]	6.27
GGTTCTAAAAAGGGAAGTACATGGAAAAATATAAAT [XGTACX_site4639]	6.75
ATCGTTATATAATGTTGTACTTGTTATATATATATA [XGTACX_site7582]	8.84
GCATGCACGGAAAAAAGTACATATATAAATTTGGTT [XGTACX_site3393]	8.65
AAAATTTAGCAAAGGTGTACAAAAGATAATTAGAGT [XGTACX_site3467]	7.69
TTTTTTAAATATATTTGTACATATGAAATAAAGATA [XGTACX_site3841]	6.74
AAAATTATTATGAAAAGTACAAATATGTAAACATAC [XGTACX_site5517]	6.24
TTCATTTATATAATCACACATTTTATCATCTATGTT [CACACA_site4327]	6.79
ATATGTTTATTTATTTGTACTTATCATATAATAACA [XGTACX_site5486]	6.38
TGTATATTTTAGTGATGTACTAATATTATTACTAAT [XGTACX_site3952]	6.21
TTAGAAAGAATGTATTGTACATATATATTATATATA [XGTACX_site7045]	6.43
TGCTTAGCACACTATCTACTTCCTTTGTTTCATAAA [GTGCAC_negctrl_site495]	6.9
TTTTTTTTTAATAAAATTATAATAAATATGAAATTA [XGTACX_negctrl_site369]	6.23
ATATATATATATATATGTACACATATATATACTCAC [XGTACX_site8043]	9.4
TGAGTATATAAATACACACACATATATATATTTTAA [CACACA_site5130]	6.49
TTTTATTTTTAAGGATGTACTCAATTGTTTATATAC [XGTACX_site3965]	6.2
ATTAAAATCATATACACACCCATATATATATATATA [CACACA_site5050]	9.27
ATACATATCTACCTATGTACATAATACAACAAAGAT [XGTACX_site323]	7.08
GAATAAATACCGGTGTGTACTTAAATCATTCACGAA [XGTACX_site3174]	6.49
ATTTTATATACAAAATGTACATATTTATTATATATG [XGTACX_site6732]	6.63

Sequence	gcPBM binding intensity (ln)
GCACATATGAATATAATACACACTTGTATTATTAAT [CACACA_site1841]	6.59
AAGGATACGCAAAAATGTACAAAATGCTTATAAATA [XGTACX_site984]	6.31
GGAGCTATCTCCTGCACACACAATTTTTTTTTTTTT [CACACA_site2240]	7.52
ATGCATAAATTTTGAAGTACAAAAAAAAAAAATAAA [XGTACX_site7282]	6.45
AAATGAGAAGAAATACGTACATATAATAAAATAATT [XGTACX_site4439]	6.64
ATACATATATAAATACGTACATATATAATTATATAT [XGTACX_site8178]	6.71
TTATATATCTATAATACACACATAATAATATATTTA [CACACA_site7423]	6.55
GCTACGTAAAAAATATGTACATATGAAATATTTTGC [XGTACX_site5111]	6.5
TCTGTAAAGTAATGGACACACAATATATCCATTTAT [CACACA_site1536]	6.31
TTTCATTGGTTTATAAAATTATGAGATCTTAAAGAC [CACACA_negctrl_site1484]	6.39
ATATATATATATATATGTACATATATTTATATTTAT [XGTACX_site6179]	9.37
GAATAATATGGACATACACACATATACATACAGATA [CACACA_site5200]	6.63
AAATAAAAAAAATTTGCACACCTTCAAAGTAATATA [CACACA_site1583]	10.2
CATACAGTATTATACTGTACCCATACAAAAAAATAT [XGTACX_site6130]	6.85
CTTATTTAAGAGTATGAACACACATCATACACATAT [CACACA_site9205]	6.57
TTTTTAATATTCTATGCATGCATCGCATATTTGGTT [TGCATGCA_site1004]	6.55
TTAACATTATATGAAGGTACAGAAAAAAAAAAATTA [XGTACX_site8530]	6.16
CATGTAATATTAAACACACACTCATATAACTCAATA [CACACA_site4212]	6.34
CACATATACTTCTGTGCACACGAATATTTTTCTTCT [CACACA_site1408]	11.2
AAAATATAATATAATGCACACATAAACAAAAAAAAA [CACACA_site8161]	10.1
TTTTATTTAACTCATAATTTTTTAAAAAACAATTAT [XGTACX_negctrl_site19]	6.37
TTTTTTTTTTTTTTGGGTACATAATAATAACAAGTG [XGTACX_site1034]	6.52

Sequence	gcPBM binding intensity (ln)
AATGACCATTTTTAAAATTACAAATACATACAACTG [TGCATGCA_negctrl_site420]	6.55
AATGTCAATTTTAATAGTACACAAATATATATATAT [XGTACX_site521]	8.96
AAGTATTATTATAAGACACACATGTATTTAAGTATA [CACACA_site4922]	6.4
AATACATATTCAAAGGTGCAAAATAAAAATATACAT [GTGCAC_site9743]	9.87
TTATAATAAGATTGTTGTACTTATATTCCTTCTATA [XGTACX_site3173]	6.36
TCGTTTCATATTTATCATGAGATAATCACACGAACA [TGCATGCA_negctrl_site497]	6.32
TGTTTTGTATATATAGCATGCAGTAAGGGAAAAAAA [TGCATGCA_site652]	7.53
TAGTTATAAGAGTTACAAAGAATACCGGAAATATAG [CACACA_negctrl_site1829]	6.78
GTGTGCTTTTTACGAGTGCAAGTATTTTGGTGGTTA [GTGCAC_site9496]	7.89
GTACACATATAATATACACACAACAAATATGCACAT [CACACA_site1010]	10.6
TTAAGAATATCTACATGTACATACCAAAGAAATACA [XGTACX_site3125]	6.57
TTTTATTCCTATTTATTTATATTTTTGTCTTATATC [CACACA_negctrl_site125]	6.36
ATGAACAAAATGTAATGTACGAATAATTATTCATAT [XGTACX_site4812]	6.62
GGAATAATATAAAACACACACATAAATATAAATATA [CACACA_site3376]	6.77
TAATTTTTTTTTTTTTTTTTTTTTTTTTTTTTCCTT [CACACA_negctrl_site1095]	5.85
TAATTTTTATTTATAATAATATATGACATATATCCA [XGTACX_negctrl_site359]	6.24
AAAAAAAAGTTCTACACACACAAAAAAATATTTTTT [CACACA_site2309]	6.5
TATAGACAAACACATACATGCATACATACATACATA [TGCATGCA_site273]	6.69
TCTGTGCACGCATGAAGTACAAAAAAGGTTTCCAGT [XGTACX_site5049]	10.3
CTATATACTAAATGCACACTTATATATTTATATATA [CACACA_site2454]	10.4
TATATTTTTTTAATATGTACATATATATATAAAACA [XGTACX_site2171]	6.42
ATGATCATAAGACACACACACAAAAAAAAAAAAAAA [CACACA_site6936]	6.49

Sequence	gcPBM binding intensity (ln)
CATATATATATATATTGTACAAGATTGTTTTTTTAT [XGTACX_site3913]	6.84
TTTAAAAAAATATATACACACATATATATATATATA [CACACA_site617]	9.36
AATTAACAAAGACACACACACACACGCACAAAAAAA [CACACA_site6388]	7.33
CTCCATATGAAACACACACACAAATGAAAAAAATAT [CACACA_site3018]	7.01
ATAGAAATAAAATAAAATAAAAAAAAAATAATGAAA [CACACA_negctrl_site1565]	6.49
TGAATTATAAATTATAGTACTTTATAATATGAACAT [XGTACX_site2317]	6.42
ATATATAATAAATACACACACATGTATTTATAAATA [CACACA_site5135]	6.8
ATATAAATAAATTAGTGAAAAAAAAAAAATTTTTTT [CACACA_negctrl_site945]	6.36
TATTACATACATATCTGTACATATATTAATGCACAA [XGTACX_site3315]	9.95
TATTAATGCAAATGTTATATGTGCATACATAAATGT [CACACA_negctrl_site790]	10.9
AAAAATATTAAAAAAGGTACACAGCATATCTCTTTT [XGTACX_site65]	6.03
AAGAGTTAAAAAAATACACACATATAGATTTTTTTA [CACACA_site7018]	6.28
ATAAATAAAAAAGAAAGAAAGAAAGAAACAAACAAA [CACACA_negctrl_site1198]	6.43
AATACTTTTTTCTGTACACACTTGATTTACTATAAT [CACACA_site5544]	7.05
TCCAATTGTTCTAGTGTGCACATAAATAAATCTCAT	11
TTCATATTCGATAAAGTGCATTAATTTTATTTATCA	8.14
AAATTAATGTATATGTGAAGCAAGGGATGCGGCAGA [CACACA_negctrl_site406]	7.19
ATATATATATATATATAATATATAATATATATATAT [CACACA_negctrl_site96]	8.66
CAATTATTGTAATGCATGCACTGAATATAAAAAGAA	10.3
TTTATATGTATTAAGTGTACACATATAATGTATTTT [XGTACX_site16]	6.75
TTTTTTTCTTTTTACATACACACAAAAAAATAAAAT [CACACA_site580]	6.58
AGCACATTATTCAAAAGTACAAATAGGTATTGTATA [XGTACX_site6107]	6.01
